Data taken from PubChem BioAssay AID588855 (National Center for Advancing Translational Sciences (NCATS), 2011).
The campaign covered roughly 410,000 compounds. About 5,000 (1.2%) were called active. Inconclusive results, whose numbers are uncertain, are shown with a selection of clear calls. Calls follow the shape of the dose curve; as a rule, active = well fitted inhibition curve with a large enough effect; inconclusive = small, poorly fitted or top-dose-only effect; inactive = no such curve, though single readings can be large or run the other way. Where the call is inconclusive, the potency comes from a doubtful curve fit.

test: qHTS for Inhibitors of TGF-b; conditions: HepG2 CAGA-GFP TGF-b/SMAD3 reporter, GFP fluorescence, 18 h, TGF-beta stimulated, 500 pg/mL final; series mostly up to 46.1 µM; also: nearly all actives have a fitted effect of over 65% in size
In short: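 Cell-based qHTS in HEPG2 carrying a CAGA-GFP Smad reporter; compounds added before 500 pg/mL final TGF-beta, 18 h incubation at 37 degrees C, GFP fluorescence quantified per cell by imaging cytometry.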
Potency is read from the fitted curve at half-maximal effect; tags tell the direction and shape of the fitted curve.

Compound	Potency
CCN1C(=O)N[C@H](c2ccc(Br)cc2)C(C(C)=O)=C1C	inactive
COC(=O)c1ccc(CN(c2ccc(C(=O)O)c(O)c2)S(=O)(=O)c2ccc(Cl)c([N+](=O)[O-])c2)cc1	inconclusive: 35.5 µM [inhibitor, single point]
O[C@H]1CN(CC2CCCCC2)[C@@H](c2ccccc2)C[C@@H]1n1cc(C2CC2)nn1	inconclusive: 35.5 µM [inhibitor, single point]
COc1ccc(S(=O)(=O)Nc2ncccn2)cc1	inactive
COc1cc(CNCCO)cc(Br)c1OCc1ccccc1Cl	inconclusive: 35.5 µM [inhibitor, single point]
O=C(NNC(=O)c1ccc2nonc2c1)Nc1ccc(Cl)cc1	inconclusive: 35.5 µM [inhibitor, single point]
COc1ccccc1N1CCN(C(=O)c2oc3cc(C)cc(C)c3c2C)CC1	inconclusive: 20 µM [inhibitor, single point]
CC(C)(C)n1nc(-c2ccc(F)cc2)c2c(N)ncnc21	inconclusive: 2.82 µM [inhibitor, partial curve, poor fit]
Cc1cc(C)n(-c2nc3ccccc3nc2N2CCN(C(=O)c3ccccc3)CC2)n1	inconclusive: 1.78 µM [inhibitor, partial curve, poor fit]
Nc1nc(SCc2ccc(Cl)cc2Cl)nc2nc3c(cc12)CCCC3	inconclusive: 35.5 µM [inhibitor, single point]
NC(N)=N/N=C/c1ccc(Cl)c(Cl)c1	inconclusive: 22.4 µM [inhibitor, single point]
CCC(C)NC(=O)CC(NS(=O)(=O)c1ccc(C)cc1)c1ccc(OC)cc1 (stereo not drawn)	inconclusive: 35.5 µM [inhibitor, single point]
CCCN(CCC)CCNC(=O)c1cc2c(-c3ccccc3F)nn(C)c2s1	inconclusive: 14.1 µM [inhibitor, single point]
O=S(=O)(c1ccc2c(c1)C(O)c1ccccc1CC2)C(F)(F)F (stereo not drawn)	inconclusive: 25.1 µM [inhibitor, single point]
O=C(CN(C1CCCCC1)S(=O)(=O)c1ccccc1)NCc1ccco1	inconclusive: 35.5 µM [inhibitor, single point]
COc1cnc(-c2ccccn2)nc1Sc1ccc(C)cc1	inactive
C=CCN(Cc1cccs1)C(=O)CN1CCN(S(=O)(=O)c2ccc3c(c2)OCCCO3)CC1	inconclusive: 12.6 µM [inhibitor, partial curve, poor fit]
Cc1ccc(C)c(NC(=O)CCCn2nc(C)c3sc4ccccc4c3c2=O)c1	inconclusive: 5.62 µM [inhibitor, single point]
